Assay results published in the supplement of paper PMC8728848.
This is one part of the list.

Target: Neu5Gc(b2-6)Gal(b1-4)GlcNAc
Test: glycan array binding signal (z-score within array); higher = stronger binding
Conditions: glycan notation: IUPAC condensed, linker removed
Procedure, shortened: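 The binding signal is a Z-score computed within each array and averaged over linkers. Arrays of the same protein sequence at different concentrations or buffers were also averaged together. Data originate from 3228 arrays in the Consortium for Functional Glycomics database, kept only where the protein sequence was available.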

B1: LecB PA7 (Pseudomonas aeruginosa) (protein)
chain: MATQGVFTLPANTRFGVTAFANSSATQTVKVLVNNETAATFTGQSTNNAVIGSQVLNSGGGGKVQIQVSVNGRSSDLVSAQVILANELNVALVGSEDSTDNDYNDAVVVINWPLG
Q: With B1 as the binder, how does the “glycan array binding signal (z-score)” value read?
A: -0.51
